{"source": "paper PMC9911399", "about": "“Two distinct binding modes provide the RNA-binding protein RbFox with extraordinary sequence specificity”", "binders": {"B1": {"name": "UAGGUUA (DNA:RNA)", "RNA": "GGGAGACCGGAAUUCAGAUUGUCCUAGGUUAUUAAAUCCCGUCGUAGCCACCA", "DNA 1": "CAATCTGAATTCCGGTCTCCC", "DNA 2": "TGGTGGCTACGACGGGATT"}, "B2": {"name": "CAUGGAC (DNA:RNA)", "RNA": "B1 RNA with U25C, G27U, U29G, U30A, A31C", "DNA 1": "CAATCTGAATTCCGGTCTCCC", "DNA 2": "TGGTGGCTACGACGGGATT"}, "B3": {"name": "GGAUUGA (DNA:RNA)", "RNA": "B1 RNA with U25G, A26G, G27A, G28U, U30G", "DNA 1": "CAATCTGAATTCCGGTCTCCC", "DNA 2": "TGGTGGCTACGACGGGATT"}, "B4": {"name": "GUAGUGU (DNA:RNA)", "RNA": "B1 RNA with U25G, A26U, G27A, U30G, A31U", "DNA 1": "CAATCTGAATTCCGGTCTCCC", "DNA 2": "TGGTGGCTACGACGGGATT"}, "B5": {"name": "GCGCCAA (DNA:RNA)", "RNA": "B1 RNA with U25G, A26C, G28C, U29C, U30A", "DNA 1": "CAATCTGAATTCCGGTCTCCC", "DNA 2": "TGGTGGCTACGACGGGATT"}, "B6": {"name": "AGCACGA (DNA:RNA)", "RNA": "B1 RNA with U25A, A26G, G27C, G28A, U29C, U30G", "DNA 1": "CAATCTGAATTCCGGTCTCCC", "DNA 2": "TGGTGGCTACGACGGGATT"}, "B7": {"name": "UGUGACG (DNA:RNA)", "RNA": "B1 RNA with A26G, G27U, U29A, U30C, A31G", "DNA 1": "CAATCTGAATTCCGGTCTCCC", "DNA 2": "TGGTGGCTACGACGGGATT"}, "B8": {"name": "AGGGGUA (DNA:RNA)", "RNA": "B1 RNA with U25A, A26G, U29G", "DNA 1": "CAATCTGAATTCCGGTCTCCC", "DNA 2": "TGGTGGCTACGACGGGATT"}, "B9": {"name": "GGAUCAG (DNA:RNA)", "RNA": "GGGAGACCGGAAUUCAGAUUGUCCGGAUCAGUUAAAUCCCGUCGUAGCCACCA", "DNA 1": "CAATCTGAATTCCGGTCTCCC", "DNA 2": "TGGTGGCTACGACGGGATT"}, "B10": {"name": "AUGAUUU (DNA:RNA)", "RNA": "B1 RNA with U25A, A26U, G28A, A31U", "DNA 1": "CAATCTGAATTCCGGTCTCCC", "DNA 2": "TGGTGGCTACGACGGGATT"}, "B11": {"name": "UCACGCG (DNA:RNA)", "RNA": "B9 RNA with G25U, G26C, U28C, C29G, A30C", "DNA 1": "CAATCTGAATTCCGGTCTCCC", "DNA 2": "TGGTGGCTACGACGGGATT"}, "B12": {"name": "UGUUAGC (DNA:RNA)", "RNA": "B9 RNA with G25U, A27U, C29A, A30G, G31C", "DNA 1": "CAATCTGAATTCCGGTCTCCC", "DNA 2": "TGGTGGCTACGACGGGATT"}, "B13": {"name": "GAACAAU (DNA:RNA)", "RNA": "B9 RNA with G26A, U28C, C29A, G31U", "DNA 1": "CAATCTGAATTCCGGTCTCCC", "DNA 2": "TGGTGGCTACGACGGGATT"}, "B14": {"name": "CCUUCAC (DNA:RNA)", "RNA": "B9 RNA with G25C, G26C, A27U, G31C", "DNA 1": "CAATCTGAATTCCGGTCTCCC", "DNA 2": "TGGTGGCTACGACGGGATT"}, "B15": {"name": "GGGCGGU (DNA:RNA)", "RNA": "B9 RNA with A27G, U28C, C29G, A30G, G31U", "DNA 1": "CAATCTGAATTCCGGTCTCCC", "DNA 2": "TGGTGGCTACGACGGGATT"}, "B16": {"name": "UGUGUUG (DNA:RNA)", "RNA": "B1 RNA with A26G, G27U, A31G", "DNA 1": "CAATCTGAATTCCGGTCTCCC", "DNA 2": "TGGTGGCTACGACGGGATT"}, "B17": {"name": "UCCACUU (DNA:RNA)", "RNA": "B1 RNA with A26C, G27C, G28A, U29C, A31U", "DNA 1": "CAATCTGAATTCCGGTCTCCC", "DNA 2": "TGGTGGCTACGACGGGATT"}, "B18": {"name": "CAAGACC (DNA:RNA)", "RNA": "B1 RNA with U25C, G27A, U29A, U30C, A31C", "DNA 1": "CAATCTGAATTCCGGTCTCCC", "DNA 2": "TGGTGGCTACGACGGGATT"}, "B19": {"name": "CACUCCA (DNA:RNA)", "RNA": "B9 RNA with G25C, G26A, A27C, A30C, G31A", "DNA 1": "CAATCTGAATTCCGGTCTCCC", "DNA 2": "TGGTGGCTACGACGGGATT"}, "B20": {"name": "AAGCAGC (DNA:RNA)", "RNA": "B1 RNA with U25A, G28C, U29A, U30G, A31C", "DNA 1": "CAATCTGAATTCCGGTCTCCC", "DNA 2": "TGGTGGCTACGACGGGATT"}}, "note": "Where a chain is given by its changes, count along the chain named. Some of the results follow."}
{"target": "T1, RBFOX1 RRM RbFoxmut (Fox-RRM*) (Homo sapiens, UniProt Q9NWB1 109-208, R118D;E147R;N151S;E152T)", "T1 sequence": "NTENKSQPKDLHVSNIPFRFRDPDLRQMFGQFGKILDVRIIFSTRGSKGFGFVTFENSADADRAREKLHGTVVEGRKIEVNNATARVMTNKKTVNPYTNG", "assay": "EMSA; HiTS-Eq, 1 nM pool, 10 min; buffer printed only for the single-RNA assays: 10 mM Tris pH 7.5, 150 mM NaCl, 3.4 mM EDTA, 0.001% NP-40, 30 C", "settings": "tags: His6 N-terminal (pET28a); label: 5' 32P", "outline": "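A pool of RNA with 7 randomized nucleotides, 5′-radiolabelled and with DNA-annealed flanks, was equilibrated at 1 nM for 10 min in 50 µL with purified RbFox RRM, wild type or mutant, across increasing protein concentrations. Free RNA was separated by 8% native PAGE, excised, reverse-transcribed, barcoded by PCR and sequenced. Relative association constants were obtained from read-count changes of each RNA species versus the control reaction and normalised to the cognate motif.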"}
{"binder": "B1", "binding signal": "0.127 KA relative to UGCAUGU"}
{"binder": "B2", "binding signal": "0.0903 KA relative to UGCAUGU"}
{"binder": "B3", "binding signal": "0.278 KA relative to UGCAUGU"}
{"binder": "B4", "binding signal": "0.219 KA relative to UGCAUGU"}
{"binder": "B5", "binding signal": "0.0773 KA relative to UGCAUGU"}
{"binder": "B6", "binding signal": "0.141 KA relative to UGCAUGU"}
{"binder": "B7", "binding signal": "0.148 KA relative to UGCAUGU"}
{"binder": "B8", "binding signal": "0.166 KA relative to UGCAUGU"}
{"binder": "B9", "binding signal": "0.166 KA relative to UGCAUGU"}
{"binder": "B10", "binding signal": "0.101 KA relative to UGCAUGU"}
{"binder": "B11", "binding signal": "0.125 KA relative to UGCAUGU"}
{"binder": "B12", "binding signal": "0.126 KA relative to UGCAUGU"}
{"binder": "B13", "binding signal": "0.0594 KA relative to UGCAUGU"}
{"binder": "B14", "binding signal": "0.0937 KA relative to UGCAUGU"}
{"binder": "B15", "binding signal": "0.126 KA relative to UGCAUGU"}
{"binder": "B16", "binding signal": "0.383 KA relative to UGCAUGU"}
{"binder": "B17", "binding signal": "0.0917 KA relative to UGCAUGU"}
{"binder": "B18", "binding signal": "0.0774 KA relative to UGCAUGU"}
{"binder": "B19", "binding signal": "0.0809 KA relative to UGCAUGU"}
{"binder": "B20", "binding signal": "0.0629 KA relative to UGCAUGU"}
